Data from the supplement of paper PMC4723716.
± gives the uncertainty stated by the source. In all, about 9,900 compounds were measured (“viability index relative to DMSO control”: median about 1, lowest 2% from about 0.85 on). The list shows a part of the results.

System: Plasmodium falciparum NF54 stage V gametocytes
Experiment: viability index relative to DMSO control (fraction); higher = less gametocyte killing
Details: 2.5 µM, incubation time: 72 h
Outline: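 Viability index is the count of red-stained particles in a well divided by the plate mean of solvent-only wells. Particles of 20–70 µm2 were counted in one imaged field per well after one to two hours with 3 µl of 2.5 µM MitoTracker Red CMXRos and 0.13% saponin. Before staining, P. falciparum NF54 stage V gametocytes in serum-free medium (0.75% gametocytemia, 1.25% hematocrit, 10 µl, 1,536-well plates) were kept with compound at 2.5 µM for 72 hr at 37°C under low oxygen.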

[1] = library set: Broad Institute DOS
[2] = library set: Broad Institute Blood Stage

| SMILES | viability index [1] | viability index [2] |
| --- | --- | --- |
| CC(C)[C@@H]1C(=O)NCC/C=C/C[C@@H](C)Oc2ccccc2C(=O)N1C.CC(C)[C@@H]1C(=O)NCC/C=C\C[C@@H](C)Oc2ccccc2C(=O)N1C | 0.97 ± 0.1 | – |
| CCCNC(=O)C[C@H]1CC[C@@H]2[C@H](COc3ccc(NC(=O)CC)cc3C(=O)N2C)O1 | 1.11 ± 0.097 | – |
| CC(C)[C@@H]1C/C=C\CCNC(=O)[C@@H](C)CC(=O)N1 | 1.05 ± 0.054 | – |
| CN1c2ccc(-c3ccc(C#N)cc3)cc2[C@H]2[C@H](CCN2S(=O)(=O)c2ccc(F)cc2)[C@@H]1CO | 1.1 ± 0.071 | – |
| C[C@H](CO)N1C[C@H](C)[C@H](CN(C)S(=O)(=O)c2ccc(F)cc2)OCCCC[C@H](C)Oc2ccc(N(C)C)cc2C1=O | 1.02 ± 0.088 | – |
| COc1ccc([C@H]2C/C=C\C[C@H](c3ccc(F)cc3)NC(=O)CCC(=O)N2)c(OC)c1 | 1.016 ± 0.0087 | – |
| COc1ccccc1S(=O)(=O)N(C)C[C@@H]1OCc2ccccc2-c2ccccc2C(=O)N([C@H](C)CO)C[C@@H]1C | 1.047 ± 0.0047 | – |
| COc1ccccc1C#Cc1ccc2c(c1)[C@H]1[C@H](CCN1S(=O)(=O)c1cn(C)cn1)[C@@H](CO)N2 | 1 ± 0.13 | – |
| O=S(=O)(c1cccs1)N1CCCCN2[C@@H](CO)[C@@H](c3ccc(/C=C/c4ccccc4)cc3)[C@@H]2C1 | 1.04 ± 0.04 | – |
| COCC(=O)N1[C@H](C#N)[C@H](c2ccc(C#CCC3CCCC3)cc2)[C@H]1CO | 1.09 ± 0.032 | – |
| CCS(=O)(=O)Nc1ccc2c(c1)C(=O)N(C)[C@H]1CC[C@@H](CC(=O)NC3CCCCC3)O[C@@H]1CO2 | 0.93 ± 0.1 | – |
| O=C(C1CCC1)N1C[C@@H]2[C@H](c3ccccc31)[C@H](CO)N2C(=O)Nc1cccc(F)c1 | 1.03 ± 0.12 | – |
| COCC(=O)N1[C@@H]2CN(C(=O)Nc3ccccc3Cl)c3ccccc3[C@@H]2[C@@H]1CO | 1.12 ± 0.093 | – |
| O=C(C[C@H]1C[C@H]2c3cc(NS(=O)(=O)c4ccc(F)cc4)ccc3O[C@H]2[C@@H](CO)O1)NCc1cccnc1 | 1.08 ± 0.015 | – |
| Cc1ccc(S(=O)(=O)N(C)C[C@@H]2Oc3c(NS(C)(=O)=O)cccc3C(=O)N([C@H](C)CO)C[C@H]2C)cc1 | 0.949 ± 0.068 | – |
| Cc1ccccc1S(=O)(=O)Nc1ccc2c(c1)C(=O)N(C)[C@H]1CC[C@@H](CC(=O)O)O[C@H]1CO2 | 0.956 ± 0.044 | – |
| C[C@H]1CN([C@@H](C)CO)C(=O)c2ccccc2-c2ccccc2CO[C@H]1CN(C)C(=O)NC1CCCCC1 | 1.02 ± 0.011 | – |
| CCCNC(=O)N1C[C@]2(CN(C2)C(=O)CN(C)C)c2c([C@@H]1CO)n(C)c1cc(OC)ccc21 | 0.965 ± 0.078 | – |
| CN1[C@@H]2c3ccc(-c4cccnc4)c(=O)n3C[C@@H]2[C@@H](CO)[C@@H]1C(=O)N1CCc2ccccc2C1 | 1.066 ± 0.006 | – |
| COCC(=O)N1[C@H](CO)[C@H](c2ccc(C#CC(C)C)cc2)[C@@H]1CNC(C)=O | 1.063 ± 0.0046 | – |
| C[C@H]1CN([C@@H](C)CO)C(=O)CCCn2nncc2CO[C@H]1CN(C)Cc1cccc2c1OCCCO2 | 1 ± 0.079 | – |
| COCC#Cc1ccc([C@H]2[C@@H](CO)N3CCCCN(C(=O)NC4CCCC4)C[C@H]23)cc1 | 1.037 ± 0.008 | – |
| Cc1cc(C(=O)Nc2ccc3c(c2)C(=O)N(C)[C@H]2CC[C@H](CC(=O)O)O[C@@H]2CO3)no1 | 0.927 ± 0.12 | – |

| SMILES | viability index [1] | viability index [2] |
| --- | --- | --- |
| C[C@H](CO)N1C[C@H](C)[C@H](CN(C)S(=O)(=O)c2ccc(F)cc2)OCc2ccccc2-c2c(n(C)c3ccccc23)C1=O | – | 0.942 ± 0.045 |
| C[C@@H]1CN([C@@H](C)CO)C(=O)Cc2cc(NS(=O)(=O)c3cccs3)ccc2O[C@H]1CN(C)CC1CCCCC1 | 0.98 ± 0.083 | – |
| C[C@H]1CN([C@@H](C)CO)C(=O)CCCn2nncc2CO[C@H]1CN(C)C(=O)c1cc(-c2ccccc2)on1 | 0.977 ± 0.052 | – |
| CN1C(=O)c2cc(NS(C)(=O)=O)ccc2OC[C@@H]2O[C@H](CC(=O)NCc3ccccc3)CC[C@@H]21 | 1.08 ± 0.038 | – |
| O=C(NCC[C@H]1CC[C@@H](NS(=O)(=O)c2ccc(F)cc2)[C@H](CO)O1)c1ccc2c(c1)OCO2 | 0.942 ± 0.11 | – |
| Cc1ccc(NC(=O)Nc2ccc3c(c2)C(=O)N(C)[C@@H]2CC[C@H](CC(=O)NCC(F)(F)F)O[C@@H]2CO3)cc1 | 1.21 ± 0.066 | – |
| COc1ccccc1CNC(=O)C[C@@H]1C[C@@H]2c3cc(NC(=O)C4CCC4)ccc3O[C@@H]2[C@@H](CO)O1 | 1.01 ± 0.015 | – |
| O=C(Nc1ccc(F)cc1)N1CC(=O)N2[C@H](C1)[C@@H](c1ccc(C#Cc3cccnc3)cc1)[C@@H]2CO | 1.141 ± 0.0015 | – |
| COc1ccc2c3c([C@@H](CO)NC[C@]33CCN(CC4CCCCC4)CC3)n(C)c2c1 | 0.949 ± 0.041 | – |
| COCC#Cc1ccc([C@@H]2[C@@H](CO)N3C(=O)CN(C(=O)c4ccncc4)C[C@@H]23)cc1 | 1.06 ± 0.018 | – |
| CC(C)C(=O)Nc1ccc2c(c1)C(=O)N(C)[C@H]1CC[C@H](CC(=O)Nc3ccc(Cl)cc3)O[C@@H]1CO2 | 1.07 ± 0.048 | – |
| COc1ccc2c3c([C@H](CO)N(CC4CC4)C[C@]33CN(C3)S(=O)(=O)c3cn(C)cn3)n(C)c2c1 | 0.946 ± 0.015 | – |
| CCCNC(=O)N(Cc1cccnc1)C[C@H]1N[C@H](CO)[C@@H]1c1ccccc1 | 1.021 ± 0.0074 | – |
| C[C@@H]1CN([C@H](C)CO)C(=O)c2cc(NS(=O)(=O)c3cn(C)cn3)ccc2O[C@@H](C)CCCCO[C@H]1CN(C)C(=O)Nc1ccc(C(F)(F)F)cc1 | 1.14 ± 0.021 | – |
| CNC[C@H]1OCCCC[C@H](C)Oc2ccc(NC(=O)Nc3ccc(OC)cc3)cc2C(=O)N([C@H](C)CO)C[C@H]1C | 1.02 ± 0.052 | – |
| COc1ccc2c3c([nH]c2c1)[C@H](CO)N(Cc1cc(OC)cc(OC)c1)C[C@]31CN(C1)C(=O)Nc1c(C)noc1C | 1.03 ± 0.025 | – |
| C[C@@H]1CN([C@@H](C)CO)C(=O)c2cc(-c3ccncc3)cnc2O[C@@H]1CN(C)C(=O)CN1CCOCC1 | 1.02 ± 0.04 | – |
| C[C@@H]1CCCCO[C@H](CN(C)S(C)(=O)=O)[C@@H](C)CN([C@H](C)CO)C(=O)c2cc(NC(=O)NC3CCCCC3)ccc2O1 | 1.11 ± 0.12 | – |
| COCC(=O)Nc1ccc2c(c1)OC[C@@H](C)N(C(=O)Nc1ccccc1F)C[C@@H](C)[C@H](OC)CN(C)C2=O | 0.996 ± 0.056 | – |
| O=C(NC[C@H]1N[C@H](CO)[C@@H]1c1ccc(-c2ccccc2)cc1)c1cccc(F)c1 | 1 ± 0.041 | – |
| Cc1cccc(-c2ccc([C@@H]3[C@@H](CO)N4CCCCN(S(=O)(=O)c5ccccc5F)C[C@H]34)cc2)c1 | 0.537 ± 0.053 | – |
| C[C@@H]1CN([C@H](C)CO)C(=O)c2ccccc2-c2ccccc2CO[C@H]1CN(C)C(=O)Nc1cccc(C(F)(F)F)c1 | 0.918 ± 0.11 | – |
| O=C(Nc1ccc2c(c1)[C@@H]1C[C@@H](CC(=O)N3CCCCC3)O[C@H](CO)[C@@H]1O2)NC1CCCCC1 | 1.06 ± 0.057 | – |

| SMILES | viability index [1] | viability index [2] |
| --- | --- | --- |
| C[C@H]1CN([C@@H](C)CO)C(=O)c2cccc(NC(=O)C3CCOCC3)c2O[C@H]1CN(C)C(=O)Nc1cccc2ccccc12 | 1 ± 0.068 | – |
| COc1ccccc1S(=O)(=O)N1CC[C@@H]2[C@H](CO)Nc3ccc(-c4ccc(C#N)cc4)cc3[C@@H]21 | 1.029 ± 0.008 | – |
| COc1cccc(-c2cn(CC[C@@H]3CC[C@H](NS(=O)(=O)c4ccccc4Cl)[C@H](CO)O3)nn2)c1 | 1.04 ± 0.025 | – |
| C[C@@H]1CN([C@H](C)CO)C(=O)c2cc(NC(=O)Cn3cnnn3)ccc2O[C@@H]1CN(C)Cc1ccc(C(=O)Nc2ccccc2N)cc1 | 0.985 ± 0.063 | – |
| C[C@@H]1CCCCO[C@@H](CN(C)C(=O)C2CCCCC2)[C@@H](C)CN([C@H](C)CO)C(=O)c2cc(NS(=O)(=O)c3ccccc3)ccc2O1 | 0.927 ± 0.072 | – |
| O=C(c1ccccc1F)N1CC(=O)N2[C@H](C1)[C@@H](c1ccc(-c3cccnc3)cc1)[C@@H]2CO | – | 0.866 ± 0.049 |
| O=C(C[C@H]1CC[C@@H]2NC[C@H](O)COC[C@H]2O1)Nc1ccc(-c2ccccc2)cc1 | 1.0439 ± 3.9e-05 | – |
| O=C(Nc1ccccc1)[C@H]1[C@H](CO)[C@H]2Cn3c(cccc3=O)[C@@H]1N2C(=O)c1ccc(F)cc1 | 1.006 ± 0.0021 | – |
| C[C@@H](NC(=O)C[C@H]1C=C[C@H](NS(=O)(=O)c2cccc(F)c2)[C@@H](CO)O1)c1ccccc1 | 1.1 ± 0.11 | – |
| C[C@@H]1CN([C@H](C)CO)C(=O)c2cc(NS(=O)(=O)c3ccc(F)cc3)ccc2O[C@H]1CN(C)C(=O)Nc1ccccc1 | 0.915 ± 0.12 | – |
| N#C[C@@H]1[C@@H](c2ccccc2C2=CCCCC2)[C@H](CO)N1C(=O)CN1CCOCC1 | 1.1 ± 0.015 | – |
| COC(=O)C[C@@H]1CC[C@H]2[C@@H](COC[C@@H](O)CN2S(=O)(=O)c2cn(C)cn2)O1 | 1.03 ± 0.032 | – |
| Cc1noc(C)c1NC(=O)Nc1ccc2c(c1)C(=O)N(C)[C@@H]1CC[C@H](CC(=O)N[C@H]3CCN(Cc4ccccc4)C3)O[C@@H]1CO2 | 1.13 ± 0.03 | – |
| CO[C@@H]1CC[C@@H]2CCOc3ccc(C#N)cc3C(=O)N(C)C[C@H](c3ccccc3)CC(=O)N(C)C[C@@H]1O2 | 1.067 ± 0.0091 | – |
| Fc1cccc(-c2ccc([C@@H]3[C@@H]4CN(Cc5cncnc5)C[C@H]3N4)cc2)c1 | 1.04 ± 0.06 | – |
| CN(C)CC(=O)N1[C@@H]2c3ccc(C4=CCCCC4)c(=O)n3C[C@@H]2[C@@H](CO)[C@@H]1C(=O)Nc1nccs1 | 0.994 ± 0.048 | – |
| COc1ccc(CNC(=O)C[C@@H]2C=C[C@H](NC(=O)c3cccc(F)c3)[C@H](CO)O2)cc1 | 1.06 ± 0.032 | – |
| C[C@H](CO)N1C[C@H](C)[C@H](CN(C)Cc2cccc(C(F)(F)F)c2)OCc2cnnn2CCCC1=O | 1.02 ± 0.019 | – |
| Cc1noc(C)c1NC(=O)Nc1ccc2c(c1)C(=O)N(C)[C@@H]1CC[C@@H](CC(=O)N[C@H]3CCN(Cc4ccccc4)C3)O[C@@H]1CO2 | 1.16 ± 0.083 | – |
| C[C@@H]1CCCCO[C@@H](CN(C)Cc2ccncc2)[C@@H](C)CN([C@H](C)CO)C(=O)c2cc(NC(=O)Cc3ccccc3)ccc2O1 | 1.11 ± 0.023 | – |
| Cc1cccc(S(=O)(=O)N2C[C@@H]3[C@H](c4ccccc42)[C@H](CO)N3C(=O)c2ccccc2)c1 | 1.04 ± 0.042 | – |
| C[C@H](CO)N1C[C@H](C)[C@H](CN(C)Cc2ccc(Cl)c(Cl)c2)Oc2ccc(NC(=O)C3CCCCC3)cc2CC1=O | 0.993 ± 0.072 | – |
